43 compounds from ChEMBL document CHEMBL4888484, “Replenishing the malaria drug discovery pipeline: Screening and hit evaluation of the MMV Hit Generation Library 1 (HGL1) against asexual blood stage Plasmodium falciparum ,using a nano luciferase reporter read-out” (2022) can be followed below.

The campaign covered roughly 150,000 compounds. About 540 (0.36%) showed an effect of 50% or more. The list shows a part of the results.

As usually defined, the % Inhibition is the change of the read-out against control, counted positive when it falls.

In the experiment the test system is Plasmodium falciparum. In words: Primary screen in NF54 nanoGlo assay, in single point, at 2uM, 72h; a lower Z score goes with more inhibition. The format is functional, Erythrocyte. Conditions: timepoint 72 hour.
Turning to `CCS(=O)(=O)C1CN(C(=O)CCc2c[nH]c3ccc(C)cc23)C1`, the “% Inhibition” value is 10% and the Z score is -1.14.

Regarding `CNc1ncc(C(=O)NCc2noc(C(C)C)n2)cn1`, the “% Inhibition” value is on record as -6% and the Z score is 0.89.

On to `Cc1nc(CCNC(=O)NCCN2CCCC[C@@H]2C)cs1`, for which the “% Inhibition” value is recorded as -4% and the Z score is reported as 0.8.

Turning to `C=CCN(C)CCN(CC)S(=O)(=O)CCC1CCOCC1`, the “% Inhibition” value is recorded as -3% and the Z score was 0.57.

In the case of `O=C1NC[C@@]2(CCCN(C(=O)CCCn3cncn3)C2)O1`, the “% Inhibition” value is -2% and the Z score stood at 0.37.

As to `CCCc1cnc(C)nc1N1C[C@H](NC(=O)CNC)[C@@H](C(C)C)C1`, the “% Inhibition” value was determined as 7% and the Z score is given as -1.01.

Turning to `CC(C)CCN(CC(=O)N1CCNCC1)C(=O)c1ccc(F)c(Cl)c1`, the “% Inhibition” value is reported as 1% and the Z score is -0.05.

Take `CC(C)N(c1ccccc1)c1ccc(NC(=O)C2CCC2)cc1`: the “% Inhibition” value was found to be 1% and the Z score is reported as -0.19.

`O=C(c1cc(-c2ccncc2)on1)N1CCOC2(CCCCCC2)C1`: the “% Inhibition” value turned out to be 32% and the Z score was -4.58.

With `CCc1cc2c(Nc3ccc(N(C)C)cc3)nc(C)nc2s1`, the “% Inhibition” value is reported as -20% and the Z score came to 2.59.

For the compound `CC1CCC2(CC1)NC(=O)N(CN1CCC[C@H]1c1ccc3c(c1)OCCCO3)C2=O` (stereo partly specified), the “% Inhibition” value worked out at 2% and the Z score is reported as -0.43.

For `Cc1ccc(C(=O)N2CC[C@H](F)C2)cc1C(=O)N1CC[C@H](F)C1`, the “% Inhibition” value was found to be 13% and the Z score was -1.71.

`Cc1ccc(NC(=O)N2CCN(Cc3ccncc3)CC2)c(Cl)c1`: the “% Inhibition” value is -7% and the Z score is listed as 0.72.

For the compound `O=C(c1cnn2cccnc12)N(c1ccccc1F)C1CCCC1`, the “% Inhibition” value was -19% and the Z score stood at 3.12.

For `O=C1[C@@H]2Cc3c([nH]c4ccccc34)CN2C(=O)CN1Cc1ccc(F)cc1`, the “% Inhibition” value is listed as -1% and the Z score was determined as 0.17.

For the compound `O=C(NCCN1CCOCC1)c1cncc(-c2ccccc2Br)c1`, the “% Inhibition” value is -20% and the Z score was 2.45.

For the compound `COc1ccc(-n2cnc3c2NC(=O)C[C@@H]3c2cccnc2)c(OC)c1`, the “% Inhibition” value is given as -7% and the Z score was 0.86.

With `O=C(Nc1ncc(Cc2ccc(Cl)cc2)s1)c1cccc2ccccc12`, the “% Inhibition” value was -9% and the Z score was found to be 1.4.

For the compound `CS(=O)(=O)N1CCc2nc(NC(=O)c3cnccn3)sc2C1`, the “% Inhibition” value is recorded as -7% and the Z score is 1.04.

Take `CC(C)CCc1cc(NC(=O)[C@@H]2C[C@@H](C)CCO2)n(C)n1`: the “% Inhibition” value is given as -10% and the Z score was 1.26.

As for `Cn1cnc2cccc(C(=O)N[C@H]3CCS(=O)(=O)C(C)(C)C3)c21`, the “% Inhibition” value is on record as -2% and the Z score stood at 0.28.

Take `CC(C)(C)NC[C@H](O)COCCOc1ccc(Cl)cc1`: the “% Inhibition” value is -9% and the Z score is given as 1.47.

As for `CN(C)C(=O)c1ccc2c(c1)ncn2CCNC(=O)NC(C)(C)C`, the “% Inhibition” value was -16% and the Z score turned out to be 2.67.

Consider `CC(C=Cc1ccccn1)NCC(c1ccco1)N1CCCC1` (stereo unspecified), for which the “% Inhibition” value is -5% and the Z score turned out to be 0.61.

As for `C[C@@H]1CC(=O)N[C@H](C(=O)Nc2cncc(-c3cnc4[nH]ccc4c3)c2)C1`, the “% Inhibition” value is listed as -16% and the Z score is on record as 2.68.

As to `CCC1(CNS(=O)(=O)c2csnc2C(=O)OC)CC1`, the “% Inhibition” value turned out to be 6% and the Z score was -0.91.

In the case of `O=C1c2ccccc2CCC1C1(O)C(=O)N(C/C=C/c2ccccc2)c2ccccc21` (stereo unspecified), the “% Inhibition” value is listed as 8% and the Z score was -1.04.

As for `CC(C)(C)OC(=O)N1CCC(c2c(C(=O)NCc3ccccc3Cl)cnn2-c2ccccc2Cl)CC1`, the “% Inhibition” value is listed as -2% and the Z score amounted to 0.41.

Consider `Cc1n[nH]c(N2CCN(Cc3ccc4ccc(Cl)cc4n3)CC2)n1`, for which the “% Inhibition” value is recorded as -7% and the Z score was found to be 1.07.

With `CCN(CCC1CCN(CC(=O)Nc2cc(F)ccc2F)CC1)CC1CC1`, the “% Inhibition” value came out at 2% and the Z score is given as -0.26.

As for `O=C(Cc1ccsc1)NC[C@H](O)c1ccc2c(c1)CCO2`, the “% Inhibition” value is recorded as -13% and the Z score is on record as 1.98.

`O=c1c2cnccc2ncn1Cc1n[nH]c2c1CCC2`: the “% Inhibition” value was -12% and the Z score is given as 1.67.

As for `CCOC(=O)N1CCC(NC(C)C(O)c2ccc(F)c(F)c2)CC1` (stereo unspecified), the “% Inhibition” value is given as -5% and the Z score is 0.42.

Turning to `COc1ccccc1C1(CNC(=O)[C@@H]2CC=CCC2)CCOCC1`, the “% Inhibition” value is reported as -8% and the Z score amounted to 1.35.

On to `FC(F)(F)C1=N[C@H](C(F)(F)F)N=C(c2ccccc2)N1`, for which the “% Inhibition” value turned out to be 7% and the Z score is -1.06.

In the case of `CN(Cc1ccccc1)[C@H]1CS(=O)(=O)C[C@@H]1S(=O)(=O)c1cccs1`, the “% Inhibition” value is reported as 1% and the Z score is recorded as -0.15.

Regarding `CC(C)N1C(=O)CO[C@H](c2ccc(NC(=O)c3ccc(C#N)cc3)cc2)[C@H]1CO`, the “% Inhibition” value was -11% and the Z score was 1.66.

On to `CNC(=O)[C@@H]1C[C@H](Oc2ccccc2)CN1C1CCN(Cc2ccccn2)CC1`, for which the “% Inhibition” value is -3% and the Z score stood at 0.31.

In the case of `CC1C(Cc2ccccc2)CCN1C(=O)[C@@H](C)N` (stereo partly specified), the “% Inhibition” value is -17% and the Z score is on record as 2.02.

In the case of `CC(O)c1ccc(C2(CNC(=O)C3CCOC3)CCCC2)s1` (stereo unspecified), the “% Inhibition” value is recorded as -18% and the Z score is listed as 3.42.

In the case of `CN1CC2(CN(S(=O)(=O)c3c(F)cc(F)cc3F)C2)OC1=O`, the “% Inhibition” value is on record as -3% and the Z score is given as 0.39.

Take `CCN(CC)c1ccc(C(=O)Nc2ccc(Oc3ncccc3C#N)cc2C)cn1`: the “% Inhibition” value was determined as 6% and the Z score is recorded as -0.95.

As for `C[C@H](NC(=O)c1nc2c(s1)CCCC2)c1nnc(N)s1`, the “% Inhibition” value was determined as 1% and the Z score is listed as -0.22.
